The text below walks through data of patent US6794144 (LICENTIA, dated 2004).

This assay addresses T1, plain GST (UniProt P08515 = GST).
T1 construct: Control coating protein
Description: phage capture on coated six-well plates (data not shown).

T1 sequence (P08515 whole entry): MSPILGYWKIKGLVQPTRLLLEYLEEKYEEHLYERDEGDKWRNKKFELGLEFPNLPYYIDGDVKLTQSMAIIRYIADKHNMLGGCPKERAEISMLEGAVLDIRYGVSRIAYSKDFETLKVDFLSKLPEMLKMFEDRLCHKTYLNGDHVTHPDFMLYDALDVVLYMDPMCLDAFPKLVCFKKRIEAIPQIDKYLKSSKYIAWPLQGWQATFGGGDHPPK

B1: Hck-SH3 displayed on M13 phage fused to the pIII coat protein (other)
chain: SEDIIVVALYDYEAIHHEDLSFQKGDQMVVLEESGEWWKARSLATRKEGYIPSNYVARVDS
notes: domain: SH3; also called recombinant phages expressing Hck-SH3
As to B1, the binding result is listed as “no binding”.
